The text below walks through data of PMC4336329 (PLoS ONE, 2015).

The campaign covered roughly 310,000 compounds. About 14,000 (4.5%) showed an effect of 50% or more. Effects have a minus sign here. The list shows a part of the results.
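Note: peak tail current of the secondary pulse compared with the same well before compound.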

The assay deals with human ether-à-go-go-related gene (hERG) potassium channel (human, UniProt Q12809). Kind of assay: primary screen, population patch clamp on CHO cells stably expressing hERG.
Sequence of human ether-à-go-go-related gene (hERG) potassium channel (Q12809 whole entry, looked up): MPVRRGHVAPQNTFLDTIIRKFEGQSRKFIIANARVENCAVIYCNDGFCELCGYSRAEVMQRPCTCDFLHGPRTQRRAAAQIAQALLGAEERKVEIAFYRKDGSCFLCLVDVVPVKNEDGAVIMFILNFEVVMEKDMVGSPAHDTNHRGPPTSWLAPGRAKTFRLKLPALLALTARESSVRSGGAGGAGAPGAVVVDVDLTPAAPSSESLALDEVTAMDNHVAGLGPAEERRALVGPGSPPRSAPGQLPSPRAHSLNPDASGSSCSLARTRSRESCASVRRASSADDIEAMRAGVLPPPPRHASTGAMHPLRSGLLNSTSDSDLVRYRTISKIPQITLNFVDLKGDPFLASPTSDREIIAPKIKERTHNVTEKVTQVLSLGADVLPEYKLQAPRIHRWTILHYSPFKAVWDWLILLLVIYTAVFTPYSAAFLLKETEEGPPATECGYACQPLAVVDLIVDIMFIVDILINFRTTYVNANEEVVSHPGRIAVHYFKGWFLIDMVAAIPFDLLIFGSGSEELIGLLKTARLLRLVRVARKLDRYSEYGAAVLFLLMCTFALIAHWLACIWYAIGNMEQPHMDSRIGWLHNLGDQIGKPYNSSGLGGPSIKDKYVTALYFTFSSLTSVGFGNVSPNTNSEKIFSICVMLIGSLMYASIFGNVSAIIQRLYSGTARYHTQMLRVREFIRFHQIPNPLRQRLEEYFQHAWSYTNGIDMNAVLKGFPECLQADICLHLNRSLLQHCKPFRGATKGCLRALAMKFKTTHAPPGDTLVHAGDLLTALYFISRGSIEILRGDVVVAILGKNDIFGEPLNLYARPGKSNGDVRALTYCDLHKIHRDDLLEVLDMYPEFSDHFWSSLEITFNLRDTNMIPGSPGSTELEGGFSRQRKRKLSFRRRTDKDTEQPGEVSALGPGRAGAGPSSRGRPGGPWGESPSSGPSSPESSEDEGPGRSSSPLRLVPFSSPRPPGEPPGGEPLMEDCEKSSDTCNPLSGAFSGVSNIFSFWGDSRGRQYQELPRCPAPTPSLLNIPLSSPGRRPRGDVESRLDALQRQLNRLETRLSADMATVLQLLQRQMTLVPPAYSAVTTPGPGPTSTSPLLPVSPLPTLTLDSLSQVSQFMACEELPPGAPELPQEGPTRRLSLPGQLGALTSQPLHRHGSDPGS
On to `Cc1ccc(NC(=O)CSc2nnc(-c3cc(C)on3)o2)cc1`, for which the “hERG current change (%, negative = inhibition) at 10uM” value is reported as 17.1%.

Take `CCOC(=O)N1CCN(Cc2nc(-c3cccs3)no2)CC1`: the “hERG current change (%, negative = inhibition) at 10uM” value was -11.6%.

As to `CCOC(=O)NC1=NCC(C)S1` (stereo not shown), the “hERG current change (%, negative = inhibition) at 10uM” value is reported as 20.2%.

Turning to `Cc1[nH]c2ccccc2c1CCN(Cc1cccs1)C(=S)NC(C)(C)C`, the “hERG current change (%, negative = inhibition) at 10uM” value is on record as 3.32%.

Turning to `CCCCn1cnc2c(oc3nc4c(cc32)CCCC4)c1=O`, the “hERG current change (%, negative = inhibition) at 10uM” value was -55.5%.

For the compound `COc1ccc(NS(=O)(=O)/C=C/c2ccc(OC)c(OC)c2)cc1`, the “hERG current change (%, negative = inhibition) at 10uM” value is on record as 4.7%.

In the case of `C[N+]1(C)CC2([N+](=O)[O-])CC=C(Oc3ccccc3)C([N+](=O)[O-])(C2)C1` (stereo not shown), the “hERG current change (%, negative = inhibition) at 10uM” value was 13.8%.

As to `Cc1cccc(NC(=O)CCNS(=O)(=O)c2ccc(Cl)cc2)c1`, the “hERG current change (%, negative = inhibition) at 10uM” value is 18.4%.

As for `Cc1cccc(CS(=O)(=O)Cc2ccc(C(=O)NC3CCCC3)o2)c1`, the “hERG current change (%, negative = inhibition) at 10uM” value is recorded as -27.7%.

Consider `Cc1cccc(C(=O)NCC(c2ccco2)N(C)C)c1` (stereo not shown), for which the “hERG current change (%, negative = inhibition) at 10uM” value amounted to 11.1%.

With `CCOC(=O)CSc1nc2sc3c(c2c(=O)n1-c1ccc(OCC)cc1)CCN(C)C3`, the “hERG current change (%, negative = inhibition) at 10uM” value is given as -53.9%.

With `NC(=O)c1cc(S(=O)(=O)NC2CCCCC2)co1`, the “hERG current change (%, negative = inhibition) at 10uM” value was -2.46%.

In the case of `COc1cc2c(cc1OC)C(c1ccccc1)N(C(=O)c1cccc(S(C)(=O)=O)c1)CC2` (stereo not shown), the “hERG current change (%, negative = inhibition) at 10uM” value is given as -24%.

With `CCOc1cc(C(=O)Nc2ccc(N3CCN(C(C)=O)CC3)cc2)cc(OCC)c1OCC`, the “hERG current change (%, negative = inhibition) at 10uM” value was 11.1%.

On to `COc1ccc2c(C)c(C(=O)N3CCN(Cc4ccccc4)CC3)oc2c1.Cl`, for which the “hERG current change (%, negative = inhibition) at 10uM” value is recorded as -22.6%.

`O=C(CN1C(=O)NC2(CCCC2)C1=O)Nc1ccc(F)c(F)c1F`: the “hERG current change (%, negative = inhibition) at 10uM” value was -3.2%.

`Cc1ccc(=O)n(C(C(=O)NCc2ccco2)C(=O)c2ccc(F)cc2)c1` (stereo not shown): the “hERG current change (%, negative = inhibition) at 10uM” value is on record as -2.69%.

As for `COc1ccc2c(c1)[nH]c1c(=O)n(Cc3ccco3)cnc12`, the “hERG current change (%, negative = inhibition) at 10uM” value worked out at 17%.

Take `Cc1nn(-c2ccccc2)nc1C(=O)Oc1cc(C(F)(F)F)nn1-c1ccccc1`: the “hERG current change (%, negative = inhibition) at 10uM” value turned out to be 0.669%.

With `CC(C)(C)NC(=O)/C(=C\c1cccnc1)NC(=O)c1ccco1`, the “hERG current change (%, negative = inhibition) at 10uM” value worked out at 9.16%.

Take `Cc1ccc(N2C(=O)CC(Sc3nccc(C)n3)C2=O)cc1` (stereo not shown): the “hERG current change (%, negative = inhibition) at 10uM” value was 13.4%.

For the compound `CC(C)C(NC(=O)/C(=C\c1ccco1)NC(=O)c1ccco1)C(=O)O` (stereo not shown), the “hERG current change (%, negative = inhibition) at 10uM” value is reported as 5.53%.

Turning to `C[C@@H](NC(=O)c1nc[nH]c1C(=O)N[C@@H](Cc1ccccc1)C(=O)OCc1ccccc1)c1ccccc1`, the “hERG current change (%, negative = inhibition) at 10uM” value was 3.97%.

On to `O=C(Nc1ccc(Oc2ccccc2)nc1)C1CCN(Cc2ccco2)CC1`, for which the “hERG current change (%, negative = inhibition) at 10uM” value was -30.8%.

Consider `CCC(C)NC(=O)CSc1nnc(-c2ccc(Cl)cc2)n1N` (stereo not shown), for which the “hERG current change (%, negative = inhibition) at 10uM” value was determined as 22.3%.

In the case of `O=C(CCc1ccccc1)NCCSc1ccccc1`, the “hERG current change (%, negative = inhibition) at 10uM” value was 0.33%.

Turning to `COc1ccc(C)cc1NC(=O)CN(C)S(=O)(=O)c1ccc2c(c1)c(=O)n(C)c(=O)n2C`, the “hERG current change (%, negative = inhibition) at 10uM” value came to 17%.

For the compound `Cc1c(C(=O)O)cc(-c2ccccc2)n1Cc1ccccc1`, the “hERG current change (%, negative = inhibition) at 10uM” value was found to be 10%.

Take `COc1ccc(N(CC(=O)NCc2ccc(F)cc2)C(=O)CCC(=O)Nc2nccs2)cc1`: the “hERG current change (%, negative = inhibition) at 10uM” value was found to be 16.8%.

Take `CC1(C)CC(=O)C2=C(C1)OC1=C(C(=O)CC(C)(C)C1)C2c1ccccc1`: the “hERG current change (%, negative = inhibition) at 10uM” value was found to be 16.9%.

With `O=C(Nc1ccccc1)/C(=C\c1cccs1)NC(=O)c1ccccc1`, the “hERG current change (%, negative = inhibition) at 10uM” value stood at 9.9%.

For the compound `COc1ccccc1NC(=O)CSc1nnc(Cn2cnc3ccccc32)n1C`, the “hERG current change (%, negative = inhibition) at 10uM” value was -1.02%.

For `N#CC(C(=O)NCCc1ccccc1)c1nc2ccccc2nc1N1CCOCC1` (stereo not shown), the “hERG current change (%, negative = inhibition) at 10uM” value was determined as 16.2%.

With `COc1c(C)cc(Br)cc1C(=O)NC(=S)NCc1ccco1`, the “hERG current change (%, negative = inhibition) at 10uM” value was -11.7%.

On to `CCOc1cc(S(=O)(=O)NCCc2ccccc2C)c(OCC)cc1-n1cnnn1`, for which the “hERG current change (%, negative = inhibition) at 10uM” value is given as -20.9%.

As for `COC(=O)c1cc(NC(=O)c2c(C)noc2C)ccc1N1CCOCC1`, the “hERG current change (%, negative = inhibition) at 10uM” value came out at 17.6%.

For the compound `COc1ccccc1C(=O)Nc1cc2c(cc1C(=O)O)OCCCO2`, the “hERG current change (%, negative = inhibition) at 10uM” value is given as -2.13%.

As to `Cn1c(=O)n(C)c2cc(NC(=O)CCl)ccc21`, the “hERG current change (%, negative = inhibition) at 10uM” value was 5.19%.

`Cc1cccc(OCC(=O)Nc2ccc3c(c2)OCCO3)c1`: the “hERG current change (%, negative = inhibition) at 10uM” value is listed as -1.06%.

Turning to `COc1cccc(CC(=O)N2CCC(n3nccc3NC(=O)C3CC3)CC2)c1`, the “hERG current change (%, negative = inhibition) at 10uM” value came out at 32%.

On to `N#C/C(=C\c1ccc(O)c(O)c1)C(=O)NCCc1ccccc1`, for which the “hERG current change (%, negative = inhibition) at 10uM” value was -3.6%.

In the case of `O=C(CNC(=O)c1nc[nH]c1C(=O)N1CCc2ccccc2C1)OCc1ccccc1`, the “hERG current change (%, negative = inhibition) at 10uM” value is reported as -15.2%.

Turning to `Cc1cc(C)n(C(=O)c2c([N+](=O)[O-])cnn2C)n1`, the “hERG current change (%, negative = inhibition) at 10uM” value came to 6.74%.
